Measurements reported in PubChem BioAssay AID488969 (Vanderbilt High Throughput Screening Facility, 2010).
The full ranking holds about 110,000 compounds; the median of “z-score” is about -0.1, and the highest 2% start at about 2. The list shows a part of the results.

Molecular target: Metabotropic glutamate receptor 8 (Rattus norvegicus) (UniProt P70579)
Experiment: rat mGluR8 modulators via GIRK flux, primary screen, cell-based, thallium flux, HTS (AID 488969)
Conditions: HEK293 rat mGluR8, GIRK (G protein-gated inwardly rectifying potassium channel) thallium flux, FluoZin2; at 10 µM; stronger effect = higher value; submaximal glutamate (EC20) added with thallium

Sequence of UniProt P70579 (P70579 whole entry, looked up): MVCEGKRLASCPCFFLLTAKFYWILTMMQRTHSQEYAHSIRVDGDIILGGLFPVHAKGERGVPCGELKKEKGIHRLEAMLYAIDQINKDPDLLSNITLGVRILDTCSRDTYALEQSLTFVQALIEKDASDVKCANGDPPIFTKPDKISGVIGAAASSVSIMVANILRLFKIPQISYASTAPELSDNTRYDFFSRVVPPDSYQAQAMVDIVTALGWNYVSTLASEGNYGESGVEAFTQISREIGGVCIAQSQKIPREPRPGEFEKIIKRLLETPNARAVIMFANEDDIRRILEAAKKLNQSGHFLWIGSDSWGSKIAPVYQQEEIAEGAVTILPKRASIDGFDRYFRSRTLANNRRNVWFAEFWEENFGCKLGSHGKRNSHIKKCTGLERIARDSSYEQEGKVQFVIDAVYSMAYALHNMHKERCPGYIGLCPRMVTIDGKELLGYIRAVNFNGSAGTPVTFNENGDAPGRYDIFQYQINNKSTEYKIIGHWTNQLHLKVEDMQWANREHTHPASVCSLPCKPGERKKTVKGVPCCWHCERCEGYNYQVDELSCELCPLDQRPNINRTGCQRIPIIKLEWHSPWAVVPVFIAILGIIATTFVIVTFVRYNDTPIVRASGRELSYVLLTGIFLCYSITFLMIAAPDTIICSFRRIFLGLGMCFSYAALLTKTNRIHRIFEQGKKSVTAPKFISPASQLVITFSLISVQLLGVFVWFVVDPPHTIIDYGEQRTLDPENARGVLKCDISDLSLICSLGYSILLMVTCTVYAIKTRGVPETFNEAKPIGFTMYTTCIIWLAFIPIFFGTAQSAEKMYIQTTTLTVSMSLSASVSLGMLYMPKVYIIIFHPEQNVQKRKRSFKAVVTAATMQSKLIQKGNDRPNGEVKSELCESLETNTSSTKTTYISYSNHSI

SMILES	z-score
O=C1C=C(c2ccccc2)C(=O)N1Nc1ccccc1	0.219
Cc1ccc(C(=O)Nc2ccc(OCc3ccccc3)cc2)cc1[N+](=O)[O-]	-0.113
c1ccc(-n2nnnc2SCCCSc2nc3ccccc3s2)cc1	-0.246
CCN(CC)c1ccc(NC(=O)CN2CCN(CC(=O)Nc3ccccc3F)CC2)cc1	-0.382
Cc1sc2ncnc(SC(C)C#N)c2c1C (stereo not given)	-0.254
O=C(c1ccccc1Cl)N1CCc2ccccc2C1	-1.42
COc1ccc(OCC(O)Cn2c(Br)nc3c2c(=O)[nH]c(=O)n3C)cc1 (stereo not given)	0.131
CCc1nnc(NC(=O)c2ccc(COc3ccc(C)cc3)o2)s1	-0.137
CC1=C(C(=O)OCc2ccc3c(c2)OCO3)C(c2ccccc2)NC(=O)N1 (stereo not given)	-0.247
C=CCNC(=S)NNC(=O)c1ccc(OCC(C)C)cc1	-0.0226
COc1ccc(NS(=O)(=O)c2ccc(NC(=S)NC(=O)CC(C)C)cc2)cc1	0.22
O=C(Nc1ccc(SC(F)F)cc1)C1=COCCO1	0.0433
O=C1CCc2cc(S(=O)(=O)N3CCCC3C(=O)N3CCN(c4ccccc4)CC3)ccc2N1 (stereo not given)	-0.179
O=C1C2C3C=CC(C3)C2C(=O)N1c1nccs1 (stereo not given)	0.154
Cc1c(Cl)c([N+](=O)[O-])nn1CCCC(=O)Nc1cc(Oc2ccccc2)cc([N+](=O)[O-])c1	0.587
COCCn1nnnc1CN(Cc1ccco1)Cc1cc2cc3c(cc2[nH]c1=O)OCO3	0.0701
CCC(Sc1nc2ccccc2c2nc3ccccc3n12)C(=O)NCc1ccco1 (stereo not given)	0.508
CCOC(=O)c1ccccc1NC(=O)Cn1cnc2c1c(=O)n(C)c(=O)n2C	-0.772
N#Cc1c(-c2ccco2)cc(C2CC2)nc1N	0.088
CC(=O)C1=C(C)OC(N)=C(C#N)C1c1cc2cccc(C)c2nc1Cl (stereo not given)	-0.0744
O=C(O)c1ccccc1C1=Nc2ccc(O)cc2Oc2cc(O)ccc21	-0.969
COCCNC(=O)c1ccccc1NC(=O)COc1ccccc1	0.0962
Cc1cccc(Nc2nc(N)c([N+](=O)[O-])c(N3CCN(C)CC3)n2)c1	-0.53
Nc1nc(CSc2nnnn2-c2ccccc2)nc(N2CCCc3ccccc32)n1	0.0139
CCCS(=O)(=O)N1CCN(C(=O)c2cccc(OC)c2)CC1	-0.147
NC(=O)C(c1cccc(Cl)c1)c1ncc(C(F)(F)F)cc1Cl (stereo not given)	-0.0407
COC(=O)C1=C(C)NC(=O)/C1=C\c1cc(C)n(-c2cccc(C)c2)c1C	0.279
CC(=O)Oc1ccc(N2C(=O)C3C4C=CC(CO)(O4)C3C2=O)cc1 (stereo not given)	-0.261
COC(=O)COc1ccc(S(=O)(=O)NCCC2=CCCCC2)cc1	-0.367
CCOC(=O)c1ccc(Oc2nc(NC)nc(Nc3ccccc3)n2)cc1	-0.255
